Data as given in publication PMC4336329 (PLoS ONE, 2015).
Among all 310,000 compounds or so, about 2,200 (0.71%) showed an effect of 50% or more. Effects have a minus sign here. The list shows a part of the results.

molecular target: human ether-à-go-go-related gene (hERG) potassium channel (human, UniProt Q12809); assay: primary screen, population patch clamp on CHO cells stably expressing hERG
Sequence (Q12809 whole entry, looked up): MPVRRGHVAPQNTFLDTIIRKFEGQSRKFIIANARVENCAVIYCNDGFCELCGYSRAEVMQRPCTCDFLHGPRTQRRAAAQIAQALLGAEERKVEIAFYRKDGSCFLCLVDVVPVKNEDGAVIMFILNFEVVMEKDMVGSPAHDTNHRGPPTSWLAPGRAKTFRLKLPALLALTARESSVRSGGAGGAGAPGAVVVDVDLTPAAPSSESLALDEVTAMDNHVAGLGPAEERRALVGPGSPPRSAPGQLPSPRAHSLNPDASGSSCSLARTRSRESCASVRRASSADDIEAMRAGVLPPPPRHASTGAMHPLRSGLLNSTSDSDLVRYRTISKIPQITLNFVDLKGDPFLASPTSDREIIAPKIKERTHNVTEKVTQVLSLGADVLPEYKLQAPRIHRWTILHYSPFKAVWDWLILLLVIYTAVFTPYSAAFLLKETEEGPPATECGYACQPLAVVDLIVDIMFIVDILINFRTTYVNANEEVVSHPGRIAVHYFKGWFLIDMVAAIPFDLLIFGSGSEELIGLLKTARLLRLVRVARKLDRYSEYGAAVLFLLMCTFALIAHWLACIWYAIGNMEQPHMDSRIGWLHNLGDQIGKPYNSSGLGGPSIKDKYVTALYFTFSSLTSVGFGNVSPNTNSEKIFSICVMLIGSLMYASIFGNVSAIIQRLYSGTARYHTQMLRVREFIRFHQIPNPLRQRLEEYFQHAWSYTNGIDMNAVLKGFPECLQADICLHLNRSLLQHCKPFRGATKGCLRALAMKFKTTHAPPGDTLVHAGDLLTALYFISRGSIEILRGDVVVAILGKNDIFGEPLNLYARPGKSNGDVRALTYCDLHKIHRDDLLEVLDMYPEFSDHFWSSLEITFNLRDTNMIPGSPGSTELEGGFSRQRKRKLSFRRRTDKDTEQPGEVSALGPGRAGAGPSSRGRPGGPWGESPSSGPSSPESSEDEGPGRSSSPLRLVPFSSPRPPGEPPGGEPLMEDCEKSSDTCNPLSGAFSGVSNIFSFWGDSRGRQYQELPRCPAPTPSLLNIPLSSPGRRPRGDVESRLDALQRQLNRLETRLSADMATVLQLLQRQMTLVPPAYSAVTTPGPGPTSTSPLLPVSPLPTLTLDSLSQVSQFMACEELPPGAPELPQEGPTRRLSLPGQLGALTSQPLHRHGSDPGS

SMILES | hERG current change (%, negative = inhibition) at 1uM [%]
COc1ccc(Cn2c(C)nc3c(c(=O)c4ccccc4n3C)c2=O)cc1 | 13.1
COc1ccc(C(=O)NCc2ccc(C(=O)O)o2)cc1 | 4.44
COCc1ccc(CN2CCC(CO)(CC3CCCCO3)CC2)o1 (stereo not shown) | 18.7
CCCN(CC(=O)Nc1ccc(Cl)cc1Cl)C(=O)/C=C/c1cc(OC)ccc1OC | 15.5
COc1ccc(Cn2c(O)c(C=Nc3c(C)n(C)n(-c4ccccc4)c3=O)c(=O)[nH]c2=O)cc1 | 6.69
CSc1ccc(/C=C(\C#N)C(=O)Nc2cccc(C)c2)cc1 | 5.32
COc1cccc(NC(=O)c2nn(C)c3c2CS(=O)(=O)c2ccccc2-3)c1 | 26.1
COc1ccc(N2CCN(C(=O)COC(=O)c3cnccn3)CC2)cc1 | 10.8
CCS(=O)(=O)Nc1ccc(-c2nnc(SCC(=O)c3ccc(NC(C)=O)c(OC)c3)o2)cc1 | 0.619
CC(C)(C)c1nc2cc(Cl)c([N+](=O)[O-])cc2o1 | 8.86
Cc1cc([N+](=O)[O-])nn1CC(=O)Nc1ccccn1 | 8.07
COc1ccc(N(C)S(=O)(=O)c2c(C)[nH]c(=O)[nH]c2=O)c(OC)c1 | -0.199
O=C1CCCc2oc3c(cc(NS(=O)(=O)c4ccc5c6c(cccc46)C(=O)N5)c4ccccc43)c21 | -6.54
CCCCN(C(=O)c1c(CC)noc1C)c1c(N)n(CC(C)C)c(=O)[nH]c1=O | 6.4
C=CCC(NCc1ccccc1)c1ccc(Cl)cc1 (stereo not shown) | 9.54
O=C(CNC(=O)c1ccc(F)cc1)c1ccc(Cl)cc1 | 19.6
O=C(c1cccc(F)c1)N1CCc2ccccc21 | -4.39
CC(=O)c1ccc(NC(=S)N2CCN(c3ccccn3)CC2)cc1 | 13.1
COc1ccc(Cl)cc1N1C(=O)CC(Sc2ccccc2N)C1=O (stereo not shown) | 6.94
Cc1cccc(CS(=O)(=O)c2ncc(Cl)c(C(=O)NCc3ccccc3)n2)c1 | 2.19
O=C(CSC1CC(=O)N(CCc2ccccc2)C1=O)Nc1ccc(Br)cc1 (stereo not shown) | -4.8
CSc1ccc(/C=C(\C#N)C(=O)NC2CCCCC2C)cc1 (stereo not shown) | 1.5

SMILES | hERG current change (%, negative = inhibition) at 1uM [%]
CCOC(=O)Cc1csc(NC(=O)CC(C)(C)C)n1 | 16.6
Cc1ccccc1NC(=O)c1ccc(F)c(S(=O)(=O)N2CCCCC2)c1 | 9.08
C=CCn1c(SCC(=O)Nc2ccc(F)cc2F)nnc1-c1cnccn1 | 2.14
CC(C)(C)C(=O)Nc1ccccc1C(=O)N1CCCC1 | 16.7
Cc1ccc(CNC(=O)c2cc(-c3ccccc3C)n(CC3CC(c4cccc([N+](=O)[O-])c4)=NO3)n2)cc1 (stereo not shown) | 7.74
COc1cc(OC)cc(OC(=O)C2CCN(S(=O)(=O)c3ccc(OC)c(OC)c3)CC2)c1 | 3.95
CSc1ccccc1C(=O)Nc1ccc(C)cc1C | 7.24
CCN1CCN(CCCNC(=O)C2c3ccccc3C(=O)N(c3ccc(OC)cc3)C2c2ccc(OC)cc2)CC1 (stereo not shown) | 12
COc1ccc2c(c1OC)C(=O)O[C@@H]2[C@H]1c2c(cc3c(c2OC)OCO3)CCN1C | 8.55
COc1ccc(/C=C/C(=O)NC(=S)NNC(=O)c2c(-c3ccccc3)noc2C)cc1 | 12.2
Cc1cc[n+]2cc(-c3cccc([N+](=O)[O-])c3)c(-c3cccc([N+](=O)[O-])c3)cc2c1.[Br-] | -22.7
Cc1cccc(OCC(=O)NC(=S)N2CCCc3ccccc32)c1 | 13.2
Oc1cccc(NC(=S)Nc2ccc(SC(F)F)cc2)c1 | 7.38
O=c1ccc2cc3c([nH]c4ccc(Br)cc43)oc-2c1O | 4.16
COc1ccc(OC)c(C2CC(c3ccccc3)=NN2C(=S)Nc2ccccc2)c1 (stereo not shown) | 1.5
Cc1ccc(/C=[N+](\[O-])c2ccccc2C)o1 | 11.3
COc1ccc(S(=O)(=O)Nc2cc(C)ccn2)cc1 | 11.9
CCCN1CNc2c(c(=O)[nH]c(=S)n2CCc2ccccc2)C1 | 5.67
COc1ccc(-c2cnnc(N/N=C/C(C)=C/c3ccccc3)n2)cc1 | -2.09
CC(C)c1onc(C(=O)NCc2ccc(F)cc2)c1[N+](=O)[O-] | -1.72
CC(=O)Nc1ccc(NC(=O)c2cc(-n3cnnc3)ccc2Cl)cc1 | 9.85
CCn1cc(C(=O)N(C)c2ccc(OC)cc2OC)c2cc(OC)c(OC)cc2c1=O | 5.18

SMILES | hERG current change (%, negative = inhibition) at 1uM [%]
CCOc1ccc(OCC)c(NC(=O)C2CCCN(C(=O)c3ccc(Cl)cc3)C2)c1 (stereo not shown) | 0.365
COCCNc1ncnc2c1[nH]c1ccccc12 | 4.48
O=C(COCC(=O)N1CCOCC1)N1CCOCC1 | 16.4
S=C(Nc1ccccc1Cl)NC1CCN(Cc2ccccc2)CC1 | 2.35
CCOC(=O)CNC(=S)N1CC2C[C@@H](C1)Cn1c2cccc1=O | 19.8
CC12CCC(=O)N1C(C(=O)NNC(=O)COc1ccc(Br)cc1)CS2 (stereo not shown) | 9.94
CC(=O)Nc1ccc(S(=O)(=O)NCCc2csc(-c3cccnc3)n2)cc1 | 12.7
Cc1cc(C(=O)NCC(=O)OCC(=O)NCCc2ccccc2)ccc1[N+](=O)[O-] | -3.61
O=C(c1ccc2c(=O)n(Cc3ccc(Cl)cc3)c(=S)[nH]c2c1)N1CCOCC1 | 10.8
CCc1ccc2c(CN3CC=C(c4ccccc4)CC3)cc(=O)oc2c1 | 2.85
CCOC(=O)[C@@H]1[C@H]2COc3ccccc3[C@@H]2N2C(=O)N(c3ccc(OC)cc3)C(=O)[C@@]12C | 13.7
CN(C)c1cccc(C(=O)OCC(=O)Nc2ccccc2Sc2ccccc2)c1 | 5.59
Cc1ccc(S(=O)(=O)NCCN2CCOCC2)c(C)c1C | 12.1
CC(C)CN(C(=O)COC(=O)c1ccc([N+](=O)[O-])s1)c1c(N)n(Cc2ccccc2)c(=O)[nH]c1=O | 0.568
C=CCOc1c2ccc(C(=O)NCc3ccc(OC)cc3)cc2nn1C | 17.5
CCCOC(=O)c1ccc(NC(=O)Cc2cccs2)cc1 | 8.02
O=C(NCc1cccnc1)c1cn(-c2ccccc2)nc1-c1ccccc1 | 3.68
[N-]=C=C1C(=O)NC(=O)C([n+]2ccc(-c3ccncc3)cc2)C1c1ccccc1C(F)(F)F (stereo not shown) | 10.3
COc1ccc(OC)c(CNC(=O)C2CCC(=O)N(CCCN3CCCC3=O)C2)c1 (stereo not shown) | 0.323
O=C(N/N=C/c1coc2ccc(Cl)cc2c1=O)c1cc(O)cc(O)c1 | -2.05
COc1cc(OC)c(NC(=O)/C=C/C(=O)O)cc1Cl | 15.4
COc1ccc(NC(=O)CN(c2ccc(OC)c(Cl)c2)S(=O)(=O)c2ccccc2)c(OC)c1 | 8.68

SMILES | hERG current change (%, negative = inhibition) at 1uM [%]
CC1CCCCC1NC(=O)C1CCCN1S(=O)(=O)c1cccc2nsnc12 (stereo not shown) | 7.85
C=CCSc1nnc(-c2nnc(SCC=C)n2CC)n1CC | 16.6
COc1ccc(C(=O)NC(=S)N2CCCc3ccccc32)cc1OC | 9.95
Cc1cc(C)nc(N2CCCC(C(=O)NC(C)CCc3ccco3)C2)n1 (stereo not shown) | 5.51
Brc1cnc2ccccc2c1N1CCCCC1 | 13.8
CCCCNC(=O)c1ccc2c(c1)N(CC)C(=O)CS2 | 1.69
COc1ccc(/C=N/NC(=O)CCN2CCCCC2c2cccnc2)cc1Cn1cc([N+](=O)[O-])cn1 (stereo not shown) | 2.74
CCOc1ccccc1NC(=O)CSc1nnc(-c2cnccn2)n1CC | 1.28
Cc1cc(C)n(-c2cc(N3CCN(C(=O)c4ccccc4C)CC3)ccc2[N+](=O)[O-])n1 | -9.21
CCN1C(=O)[C@H]2[C@@H](c3ccc(C)cc3)N3C(=O)N(c4cccc(F)c4)C(=O)[C@@]3(Cc3ccc(Cl)cc3)[C@H]2C1=O | 11.7
OCC1(CCOc2ccccc2)CCN(CC2=Cc3cc(Cl)ccc3OC2)CC1 | 11.8
Cc1cc(=O)oc2c3c(cc(OCC(=O)NC(C)C)c12)OC(C)(C)CC3 | 6.18
O=C(NCc1ccc(Cl)cc1Cl)Nc1ccccc1 | 6.66
CN(C)c1cccc(C(=O)N/N=C/c2ccsc2)c1 | 6.79
O=C(NCC1CCCO1)C(C(=O)c1ccc(F)cc1)n1ccccc1=O (stereo not shown) | 14.5
O=C(c1cc2ccccc2o1)N(Cc1nnc(-c2ccccc2Cl)o1)C1CC1 | -3.08
CCOC(=O)N1CCC(N2C(=O)c3ccccc3C2Nc2cc(Cl)c(OC)cc2OC)CC1 (stereo not shown) | 2.81
O=C(CN(CCc1ccccc1)C(=O)Cn1nnc(-c2cccs2)n1)NCc1ccco1 | -7.49
Cc1cnn(C(=S)NCCc2ccccc2)c1 | 8.03
